# Measured values published in PubChem BioAssay AID1814 (Broad Institute, 2009).
# About 22,000 (7.3%) of roughly 300,000 compounds were called active. The shares of active, inactive and inconclusive entries below differ from those in the screen. Cut-off read from the data, not from the text of the source: active = activity score below about -60%; inconclusive = mostly about -28% to -61%; inactive = positive scores.
# Assay: Activators via SNCA 5'UTR binding, MLPCN (AID 1814)
# Settings: alpha-synuclein 5'UTR reporter, activators screen; hits give low values; tested at 7.5 µM
row,SMILES,activity score
1,COc1ccc(/C=C/C(=O)Nc2ccccc2C(=O)O)cc1,inactive: 83.1%
2,O=C(Cn1[nH]c(=O)c2ccccc2c1=O)Nc1ccc2c(c1)CCC2,inconclusive: -37.3%
3,CCCc1cc(C(=O)Nc2nccs2)cs1,inconclusive: -57.3%
4,O=C(CSCC(=O)N1CCCCC1)Nc1nc(-c2ccc(Cl)s2)cs1,active: -118%
5,COc1ccc(C(=O)/C=C/c2ccc(OC)c(O)c2)c(F)c1,inconclusive: -38.5%
6,COc1ccc(/C=N/Nc2nc3ccccc3[nH]2)c(OC)c1OC,active: -109%
7,CCc1nnc(NC(=O)CSc2ccc(-c3ccc(-n4cccn4)cc3)nn2)s1,active: -98.4%
8,CC(C)NC(=O)/C(C#N)=C/c1ccc(N(C)C)o1,inconclusive: -48.9%
9,Cc1ccc(C(=O)Nc2ccc(N3CCN(S(C)(=O)=O)CC3)cc2)cc1,inconclusive: -57.5%
10,CCOC(=O)N/N=C/c1cn(Cc2ccccc2Cl)c2ccccc12,inactive: 42.5%
11,CC(=O)c1cc2c(cc1N/C(=N/S(=O)(=O)c1ccc(Br)cc1)c1ccccc1)OCO2,inconclusive: -52%
12,CCCC(=O)N1CCN(c2nc3ccc(Cl)cc3s2)CC1,active: -139%
13,CCOc1cccc2c1OC(c1cc(OC)c(OC)c(OC)c1)N1N=C(c3ccc(C)o3)CC21 (centres undefined),active: -219%
14,Cc1ccc2nc(-c3ccccc3)cn2c1,inactive: 120%
15,Cc1ccc(SCC(=O)N2CCCC2)cc1,inconclusive: -59.8%
16,CCCOC(=O)c1c(N)sc(C(=O)OCC)c1C,inconclusive: -58.7%
17,CC(C)N1CCC(=NNC(=O)c2cccs2)CC1,inconclusive: -52.4%
18,Cc1nnc(-c2cnn(-c3ccccc3)c2N)n1Cc1ccccc1,inconclusive: -25.4%
19,O=C(Nc1cccnc1Cl)c1cc(-c2cccc(Cl)c2)on1,inconclusive: -57.1%
20,CCn1ncc(Cl)c1C(=O)Nc1ccc2c(c1)CCC2,inconclusive: -50.7%
21,CN1CCN(CC(=O)Nc2ccc(OCc3ccccc3)cc2)CC1,active: -89.8%
22,Oc1c(CN2CCCCC2)cc(COCc2ccccc2)c2cccnc12,inactive: 91.5%
23,O=C(CCCN1C(=O)/C(=C/c2ccc3c(c2)OCO3)SC1=S)Nc1cccc(C(=O)O)c1,inactive: 72.9%
24,CCc1ccn2cc(-c3cc(-c4ccccc4)no3)nc2c1,inactive: 94.4%

row,SMILES,activity score
1,C[C@H]1O[C@@H](O[C@H]2[C@@H](O)C[C@H](O[C@H]3[C@@H](O)C[C@H](O[C@H]4CC[C@@]5(C)[C@H](CC[C@@H]6[C@@H]5C[C@@H](O)[C@]5(C)[C@@H](C7=CC(=O)OC7)CC[C@]65O)C4)O[C@@H]3C)O[C@@H]2C)C[C@H](O)[C@@H]1O,inactive: 112%
2,COC(=O)c1c(NC(=O)C2CCCCC2C(=O)O)sc2c1CCCCC2 (centres undefined),inconclusive: -60%
3,O=C(NCC1CCCO1)C1CCN(C2CCN(C(=O)Cc3ccsc3)CC2)CC1 (centres undefined),inconclusive: -41.8%
4,CCc1nc2ccccc2c(C(=O)Oc2ccc(C(=O)OC)cc2)c1C,inconclusive: -50.8%
5,S=C(NCCc1ccccc1)Nc1ccc(Cl)cc1,active: -135%
6,Cc1nc(NC(=O)c2ccccc2)sc1-c1csc(Nc2cccc(F)c2)n1,active: -81.1%
7,COc1ccc(CNCc2ccco2)cc1OCc1ccccc1,inconclusive: -51.4%
8,CC(=O)N(c1ccccc1)c1nnc(-c2cnc(C)cn2)s1,active: -82.5%
9,O=C(NC(Nc1nc2ccc([N+](=O)[O-])cc2s1)(C(F)(F)F)C(F)(F)F)c1ccccc1,inactive: 94.1%
10,COc1ccccc1-c1c(C)nn2c(N)c(-c3ccccc3)cnc12,inconclusive: -55.5%
11,Cc1ccc(NC(=O)CSc2ncccc2C(=O)Oc2cccc([N+](=O)[O-])c2)cc1Cl,active: -157%
12,CC(C)CN1CCC(=O)N(CCSc2ccccc2)CC1,active: -107%
13,CC(=O)c1cnc(-c2ccccc2)s1,inconclusive: -52.1%
14,CCOC(=O)c1cc(C(=O)Nc2ccc(C)c(F)c2)nn1C,active: -224%
15,CCn1nnc2cc(C(=O)Nc3cc(OC)cc(OC)c3)ccc21,inconclusive: -56.7%
16,O=C(CCCN1C(=O)/C(=C/c2ccccc2Cl)SC1=S)Nc1cccnc1,inconclusive: -48.5%
17,NC(=O)c1ccc(-n2nnnc2Oc2ccccc2)cc1,inconclusive: -57.5%
18,Cc1cc(C(=O)N/N=C/c2ccc(OCc3ccccc3)cc2)c(C)o1,inconclusive: -49.4%
19,COc1ccc(NC(=O)CN2CCOCC2)cc1,inconclusive: -37.1%
20,Cc1ccc2nc(NC(=O)c3ccc(Cn4cc(Cl)cn4)o3)sc2c1,inconclusive: -56.8%
21,COc1ccc2oc(=Nc3cccc(F)c3)c(C(N)=O)cc2c1,inconclusive: -58.2%
22,Cc1ccc(C(=O)NNC(=O)/C=C\C(=O)O)cc1,inconclusive: -56.6%
23,CCCCNc1ncnc2c1cnn2-c1ccc(Cl)cc1,active: -137%
24,Nc1nn(-c2cccc(F)n2)cc1-c1ccc(Cl)cc1,inconclusive: -61%

row,SMILES,activity score
1,Cc1ccc(N2CCN(/N=C/C(Cl)=C/c3ccccc3)CC2)cc1,inconclusive: -36.1%
2,Nc1nc2ccccc2n1/N=C/c1ccc([N+](=O)[O-])s1,inactive: 83.4%
3,ONC(=Nc1ccc(Cl)cc1)c1ccc(Cl)cc1,active: -99.8%
4,CC(=O)c1c(C)[nH]c(C(=O)OCC(=O)N2CCc3ccccc32)c1C,active: -131%
5,CC1(C)Cc2nc3sc4c(NCCO)ncnc4c3cc2CS1,inconclusive: -54.5%
6,c1ccc2oc(SCc3cn4ccsc4n3)nc2c1,active: -122%
7,O=c1oc2ccccc2c(Nc2cc3ccccc3cc2O)c1[N+](=O)[O-],inconclusive: -46.8%
8,C=CCNC(=O)COc1ccc(Br)cc1Cl,active: -103%
9,COc1ccc(C/C(C)=N/NC(=O)c2cc(C)oc2C)cc1,inconclusive: -59.1%
10,O=C(NC1CCCC1)c1cc(-c2ccccc2Cl)on1,inconclusive: -57%
11,CCOc1ccc(Nc2nc(N)nc(CCl)n2)cc1,inactive: 96%
12,CCN(CC)c1ccc(/C=N/Nc2nc3ccccc3[nH]2)c(O)c1,inactive: 84.5%
13,Cc1nc(-c2ccc(Cl)cc2)sc1C(=O)CBr,inconclusive: -33.7%
14,CC(C)N(C(=O)CSc1ncnc2sc(-c3ccccc3)cc12)C(C)C,active: -87.8%
15,O=C(Nc1cccc(-c2ccc(N3CCOCC3)nn2)c1)c1ccccc1,active: -79.8%
16,O=C(CNC(=O)c1ccccc1O)N/N=C/c1cc(Br)ccc1OC(=O)/C=C/c1ccco1,inactive: 68.1%
17,CC(C)c1ccc(NC(=S)Nc2ccc3cn[nH]c3c2)cc1,active: -93.9%
18,COc1ccc(NCc2ccc3c(c2)OCO3)cc1Cl,inconclusive: -59%
19,CC1CCCC(NC(=O)COC(=O)c2ccc3ccccc3n2)C1C (centres undefined),inconclusive: -29.9%
20,O=C(CSc1nnc(-c2cccs2)o1)c1cccs1,inconclusive: -57%
21,CCOc1ccc(-c2n[nH]c(C(=O)NN)c2C)cc1,active: -72.8%
22,Cc1ccc2c(c1)/C(=C/c1ccco1)C(=O)N2,inconclusive: -64.9%
23,Nn1c(COc2cccc(Cl)c2)nc2ccccc2c1=O,inconclusive: -52.7%
24,Cc1cccc(C)c1OCC(O)CN(Cc1ccccc1O)C1CCCCC1 (centres undefined),inactive: 61.8%

row,SMILES,activity score
1,CC(C)CC1CC(=O)OC1(C)C(=O)CSc1nc2ccccc2s1 (centres undefined),inconclusive: -41.4%
2,CCOC(=O)N1CCN(C(=O)c2ccc(Cn3c(=S)[nH]c4cc(C(=O)OC)ccc4c3=O)cc2)CC1,inconclusive: -56.8%
3,Cc1cccc(C(=O)OCC(=O)c2cccc(Br)c2)c1O,inconclusive: -51.8%
4,Cc1noc(C(=O)Nc2ccc(F)cc2F)c1Cl,inconclusive: -43.5%
5,CC(=O)N1N=C(c2cccc(Cl)c2)OC1c1ccc(C(C)C)cc1 (centres undefined),inconclusive: -54.1%
6,C=CCn1c(NC(=O)c2ccc(C)cc2)nc2ccccc21,active: -111%
7,O=C(Nc1cccc(NC(=O)c2cc([N+](=O)[O-])ccc2Cl)n1)c1cc([N+](=O)[O-])ccc1Cl,inactive: 48.4%
8,COC(=O)c1oc2ccc(Br)cc2c1NC(=O)c1ccccc1,inconclusive: -45.3%
9,CCCCCC(=O)N/N=C/c1ccc(N(C)C)cc1,inconclusive: -56.5%
10,CCCSc1ccc2nc(-c3ccccc3)cn2c1,inactive: 111%
11,CCc1ccccc1NC(=S)N=Nc1c(O)n(C)c2ccc(S(=O)(=O)N3CCOCC3)cc12,inactive: 80.5%
12,CCCCC(=O)Nc1nnc(/C=C/c2ccc(OC)cc2)s1,inconclusive: -50.4%
13,O=C1CCCc2[nH]c(-c3ccccc3)nc21,inconclusive: -51.2%
14,COc1ccc(-c2coc3cc4oc(=O)c5ccccc5c4cc23)cc1F,inactive: 81.1%
15,CCOc1cc(/C=N/Nc2nn3cnnc3c3ccccc23)ccc1O,inconclusive: -57.9%
16,O=C(C1CC1)N(Cc1ccco1)c1nc(-c2ccccc2)cs1,inconclusive: -45.3%
17,CCN(CC)S(=O)(=O)c1ccc(N/N=C(\C)c2ccc(OC)cc2O)nc1,inactive: 78.2%
18,Cc1cccc(Cc2cnc(N3C(=N)SC(c4ccccc4)C3=O)s2)c1 (centres undefined),inconclusive: -55.5%
19,O=C(/C=C/c1cccs1)NC1CC1,inconclusive: -29.9%
20,O=C(Nc1nc(-c2ccccn2)cs1)c1cc2ccccc2o1,inconclusive: -60.8%
21,CN(C)c1c(-c2ccccc2)cc(-c2ccccc2)[nH]c1=O,inconclusive: -59.1%
22,CCCCCC(C)NC(=S)NC(=O)c1cc(S(=O)(=O)N2CCOCC2)ccc1C (centres undefined),inactive: 66.2%
